# Measured values: PubChem BioAssay AID2546 (National Center for Advancing Translational Sciences (NCATS), 2010)
# About 11,000 (3.5%) of roughly 310,000 compounds were called active. Inconclusive means that the source gave no clear call. Such entries were picked first, then a sample of the others. Calls follow the shape of the dose curve; as a rule, active = well fitted inhibition curve with a large enough effect; inconclusive = small, poorly fitted or top-dose-only effect, or effect the other way; inactive = flat fitted curve, though single readings scatter. Potencies of inconclusive entries are left out as doubtful fits.
# Experiment: VP16 counterscreen qHTS for inhibitors of ROR gamma transcriptional activity;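 also: Gal4-VP16 expression switched on by copper sulfate through the metallothionein promoter; nearly all actives have a fitted effect of over 50% in size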
# Settings: Drosophila S2 Gal4-VP16 UAS-luciferase, luminescence, 20 h; activity, negative = inhibition: at 53.6 µM (top of the series)
# % is scaled to controls: 0 for no effect and ±100 for the full control effect; potency is read from the fitted curve at half-maximal effect; tags tell the direction and shape of the fitted curve.
Structure (SMILES),Potency,"activity, negative = inhibition"
Cc1ccc(NC(=O)CCc2c(C)nn(-c3ccc(N4CCCCC4)nn3)c2C)cc1,"inconclusive [inhibitor, partial curve, poor fit]",
Cc1ccc(S(=O)(=O)ON2C(=O)c3ccccc3C2=O)c(C)c1,"inconclusive [inhibitor, single point]",
CC(C)(C)c1ccc(CN2N=Nc3ccccc3S2(=O)=O)cc1,active: 1.58 µM,
N#Cc1ccsc1NC(=O)c1ccccn1,active: 5.01 µM,
Cc1ccc2nc(-c3ccc(NS(C)(=O)=O)cc3)cc(-c3ccccc3)c2c1,active: 22.4 µM,
O=C(c1ccc2c(c1)OCO2)N1CCc2ccccc2C1,,inactive: 3.48%
Cn1cccc1CC(=O)NNC(=S)NC(=O)c1ccccc1Br,"inconclusive [activator, full curve, poor fit]",
Cc1ccc(C)c(CS(=O)(=O)c2cn(CC(=O)N3CCCCC3)c3ccccc23)c1,,inactive: 10.1%
Cc1ccc(Cl)c(NC(=S)N(CCCN2CCOCC2)Cc2ccco2)c1,"inconclusive [inhibitor, single point]",
O=C(c1cccc(S(=O)(=O)N2CCCC2)c1)c1nnc(-c2ccncc2)o1,,inactive: 3.63%
COC(=O)[C@@]1(Cc2ccc(OC)cc2)[C@H]2c3cc(C(=O)N(C)C)n(Cc4ccc(C)o4)c3C[C@H]2CN1C(=O)c1ccccc1,"inconclusive [inhibitor, single point]",
NC(=O)c1ccccc1OCC(=O)NC12CC3CC(CC(C3)C1)C2,"inconclusive [inhibitor, single point]",
CCC(=O)N1CCc2cc(Br)cc(S(=O)(=O)NCCN3CCCC3)c21,,inactive: -8.26%
Cc1c(CCC(=O)N2CCC(C(=O)O)(c3ccccc3)CC2)c(=O)oc2cc3oc4c(c3cc12)CCCC4,"inconclusive [inhibitor, partial curve]",
Cc1nn(-c2ccccc2)c(Cl)c1/C=C/C(=O)c1ccc(O)cc1,"inconclusive [inhibitor, single point]",
COC(=O)CSc1nnc(-c2sc3ccccc3c2Cl)o1,active: 20 µM,
Cc1ccc(CN2CCN(/N=C/c3cccn3C)CC2)c(C)c1,,inactive: 21.6%
COc1ccc(NC(=S)Nc2cccc3ccccc23)cc1OC,"inconclusive [inhibitor, single point]",
CCc1cccc(NC(=O)C2CCN(S(=O)(=O)c3ccc4c(c3)CC(C)N4C(C)=O)CC2)c1 (stereo not given),"inconclusive [inhibitor, single point]",
O=c1[nH]c(=O)n(Cc2ccco2)c2c1C(C(F)(F)F)(C(F)(F)F)N=C(CCC1CCCCC1)N2,"inconclusive [inhibitor, single point]",
Cc1c(C(=O)N/N=C/c2ccccc2)[nH]c2ccc(Cl)cc12,"inconclusive [inhibitor, single point]",
Cc1nc(Cl)sc1C(=O)Nc1ccccc1,,inactive: -17.8%
CC(C)c1ccc(NC2CCCN(C(=O)c3cccc4nccnc34)C2)cc1 (stereo not given),,inactive: -13.7%
Cc1nn(CCC(=O)NNC(=S)Nc2ccc([N+](=O)[O-])cc2)c(C)c1[N+](=O)[O-],,inactive: -1.31%

Structure (SMILES),Potency,"activity, negative = inhibition"
COc1cc(/C=C/C(=O)N2C(=O)c3cccc(N)c3C2=O)cc(OC)c1OC,"inconclusive [inhibitor, single point]",
O=C1Nc2ccccc2/C1=N/c1sc2c(c1C(=O)NCCc1ccccc1)CCCC2,"inconclusive [activator, single point]",
CN1C(=O)/C(=C/c2ccc(OCc3ccc(F)cc3)cc2)NC1=S,"inconclusive [inhibitor, single point]",
CCOC(=O)N/N=C/c1c(C)nn(-c2ccccc2Cl)c1Cl,"inconclusive [activator, full curve, poor fit]",
Cn1c(=O)c2c(nc(N/N=C/c3cccs3)n2Cc2ccccc2)n(C)c1=O,"inconclusive [inhibitor, single point]",
COc1cc(NC(=O)C2C3C=CC(C3)C2C(=O)O)ccc1NC(=O)c1ccccc1 (stereo not given),,inactive: -8.74%
c1ccc(SCc2nc(-c3cccnc3)no2)cc1,"inconclusive [inhibitor, single point]",
COc1ccc(/C=N/NC(=O)c2cccc(Br)c2)cc1Cn1cc(Cl)cn1,"inconclusive [inhibitor, single point]",
CC[C@@H]1CC=C[C@H]2[C@H]1C(=O)N(Cc1ccccc1)[C@H]2c1ccoc1,"inconclusive [inhibitor, single point]",
CC(=O)Nc1ccc(S(=O)(=O)CCC#N)cc1,"inconclusive [inhibitor, partial curve, poor fit]",
Cc1ccsc1C(=O)Nc1nnc(-c2ccco2)o1,"inconclusive [inhibitor, single point]",
COC(=O)c1sccc1NC(=O)c1c(-c2ccccc2)noc1C,"inconclusive [activator, single point]",
COc1cc2c(cc1OC)C(COc1ccc(C(C)C)cc1)NCC2 (stereo not given),"inconclusive [inhibitor, single point]",
O=C(CCN1C(=O)/C(=C/C=C/c2ccccc2)SC1=S)Nc1cccnc1,"inconclusive [inhibitor, single point]",
O=C(O)CSc1nnc(-c2ccccc2)c(-c2ccccc2)n1,"inconclusive [inhibitor, single point]",
S=C(Nc1ccc2nsnc2c1)NC1CCCCC1,active: 5.01 µM,
COc1cc(S(=O)(=O)N(Cc2ccco2)C2CCCC2)ccc1-n1cnnn1,"inconclusive [inhibitor, single point]",
Nc1ccc(SCCN2C(=O)c3ccccc3C2=O)cc1,"inconclusive [inhibitor, single point]",
Cc1cccc(N2CCN(C(=O)/C=C/c3cccs3)CC2)c1C,"inconclusive [inhibitor, single point]",
COc1ccc(C(=O)NC2CCCc3ccccc32)cc1 (stereo not given),"inconclusive [activator, single point]",
CC(C)(C)c1cc(S(=O)(=O)CCc2ccncc2)cc(C(C)(C)C)c1F,,inactive: -9.5%
COc1ccc(OCC(=O)Nc2ccc(N3CCN(C(=O)c4ccco4)CC3)cc2)cc1,"inconclusive [activator, single point]",
CCCCOc1ccc(C(=O)N/C(=C/C=C/c2ccccc2)C(=O)NCCO)cc1,"inconclusive [activator, single point]",
CC(C)(C)OC(=O)NCC12C=CC(O1)C1C(=O)N(Cc3ccccc3)C(=O)C12 (stereo not given),"inconclusive [inhibitor, single point]",

Structure (SMILES),Potency,"activity, negative = inhibition"
CCOc1ccccc1N1CSC2=C(C#N)C(c3c(OC)ccc4ccccc34)CC(=O)N2C1 (stereo not given),"inconclusive [inhibitor, single point]",
CC(=O)n1cc(/C=N/NC(=O)c2ccc([N+](=O)[O-])cc2)c2ccccc21,"inconclusive [inhibitor, single point]",
CC(C)c1ccc(/C=C2\SC(=S)N(CCC(=O)NCCCn3ccnc3)C2=O)cc1,"inconclusive [inhibitor, single point]",
Cc1ccc(NC2=C/C(=N\S(=O)(=O)c3cccs3)c3ccccc3C2=O)c(C)c1,"inconclusive [inhibitor, partial curve]",
CCOC(=O)Cc1csc(NC(=O)c2sc3nc4ccc(C)cc4cc3c2N)n1,"inconclusive [inhibitor, single point]",
O=C(Nn1c(SCc2cccc([N+](=O)[O-])c2)nc2ccccc2c1=O)c1ccccc1,"inconclusive [activator, single point]",
O=C(Nc1ccccc1O)c1cccc(NC(=O)c2ccco2)c1,"inconclusive [activator, single point]",
COc1ccc(OCC(=O)N2N=C(C)CC2(O)C(F)(F)F)cc1 (stereo not given),"inconclusive [inhibitor, single point]",
CCOc1ccc(C(=O)NC(=S)N2CCN(c3ccc(C(F)(F)F)cc3[N+](=O)[O-])CC2)cc1,active: 0.251 µM,
CCOC(=O)c1c(-c2ccccc2)cn2ccccc12,,inactive: -5.57%
CCn1c(CCCOc2ccc(Cl)cc2Cl)n[nH]c1=S,active: 3.16 µM,
COCCCN(C(=S)Nc1cc(Cl)cc(Cl)c1)C(C)c1ccccn1 (stereo not given),"inconclusive [inhibitor, single point]",
CCC(=O)Nc1nnc(-c2ccc(Cl)s2)o1,active: 12.6 µM,
COC(=O)Nc1ncc(CN2CCC(c3ccccc3)CC2)s1,,inactive: -13.6%
CCn1c(=NC(=O)C2COc3ccccc3O2)sc2c(C)ccc(OC)c21 (stereo not given),"inconclusive [inhibitor, partial curve, poor fit]",
Cc1cc(C)c(NC(=O)Cn2c(=O)c3cccn3c3ccccc32)c(C)c1,,inactive: -8.1%
COc1ccc(CCNc2nc(-c3cccnc3)nc3ccccc23)cc1OC,,inactive: 2.69%
COc1cccc([C@@H]2Oc3ccc(OC)cc3C[C@H]2OC(=O)NCc2ccco2)c1,,inactive: -10.1%
O=C(O)c1cccc(-c2ccc(/C=N/NC(=O)c3cccnc3)o2)c1,,inactive: -5.65%
CCOC(=O)OCC1OC(c2ccc(C(C)=O)cc2)C=CC1OC(=O)OCC (stereo not given),,inactive: -18.5% [at 10 µM]
C=CCNCCOCCOc1ccc(C)cc1Br,,inactive: -1.78%
Cc1cccc2cc(C#N)c(NCCNC(=O)COc3ccccc3)nc12,"inconclusive [inhibitor, partial curve, poor fit]",
